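Grown in 96-well plates, cells were treated for 48 hours with each compound at five concentrations. Insufficient inhibition: endpoint recorded as highest concentration tested. GI50 = concentration required for 50% inhibition of growth. TGI: concentration producing complete growth inhibition.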
These molecules were tested on NCI-H322M lung (assay: NCI tumour cell line growth inhibition, 48 h).
With `N#Cc1nc(-c2ccccc2)oc1S(=O)(=O)N1CCCCC1` the GI50 was 90.7 µM and the TGI was > 100 µM.
`CCC(CC)n1c(=O)c(SC2=NC3C(NN2)N(CC)C(=O)N3CC)c(C(=O)O)c2ccccc21` (stereo unspecified) was tested, and the GI50 was 7.02 µM and the TGI was > 100 µM.
Work on `O=C1CC2(CCOCC2)Oc2ncccc21` yielded a GI50 of 2.87 µM and a TGI of 10.2 µM.

— PubChem BioAssay (NCI)
